# According to the supplement of paper PMC8728848:
# Some of the results follow.
# Key:
# Experiment in all cases: glycan array binding signal (z-score within array); higher = stronger binding
# Details in all cases: glycan notation: IUPAC condensed, linker removed
# Gal3S(b1-4)Glc = target: Gal3S(b1-4)Glc
# Procedure, shortened: (§1)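 Glycan array binding is given as a within-array Z-score, which can be read as non-binding when negative. The arrays, 3228 of them, came from the Consortium for Functional Glycomics database and were retained only where the protein sequence was available. Z-scores were averaged across arrays of the same protein sequence at different concentrations or buffers and across linkers.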
# Gal3S(b1-4)Glc6S = target: Gal3S(b1-4)Glc6S
# Procedure, shortened: as §1
# Gal3S(b1-4)GlcNAc = target: Gal3S(b1-4)GlcNAc
# Procedure, shortened: as §1
# Gal3S(b1-4)GlcNAc6S = target: Gal3S(b1-4)GlcNAc6S
# Procedure, shortened: as §1
# [1] = target: Gal3S(b1-4)[Fuc(a1-3)]Glc
# Procedure, shortened: as §1
# [2] = target: Gal3S(b1-4)[Fuc(a1-3)]Glc6S
# Procedure, shortened: as §1
# Gal3S4S(b1-4)GlcNAc = target: Gal3S4S(b1-4)GlcNAc
# Procedure, shortened: as §1
# Gal3S6S(b1-4)GlcNAc = target: Gal3S6S(b1-4)GlcNAc
# Procedure, shortened: as §1
# Gal3S6S(b1-4)GlcNAc6S = target: Gal3S6S(b1-4)GlcNAc6S
# Procedure, shortened: as §1
# Gal4S(b1-4)GlcNAc = target: Gal4S(b1-4)GlcNAc
# Procedure, shortened: as §1
# Gal4S6S(b1-4)GlcNAc = target: Gal4S6S(b1-4)GlcNAc
# Procedure, shortened: as §1
# Gal6S(b1-3)GlcNAc = target: Gal6S(b1-3)GlcNAc
# Procedure, shortened: as §1
# Gal6S(b1-3)GlcNAc6S = target: Gal6S(b1-3)GlcNAc6S
# Procedure, shortened: as §1
# Gal6S(b1-4)Glc = target: Gal6S(b1-4)Glc
# Procedure, shortened: as §1
# Gal6S(b1-4)Glc6S = target: Gal6S(b1-4)Glc6S
# Procedure, shortened: as §1
# Gal6S(b1-4)GlcNAc = target: Gal6S(b1-4)GlcNAc
# Procedure, shortened: as §1
# Gal6S(b1-4)GlcNAc6S = target: Gal6S(b1-4)GlcNAc6S
# Procedure, shortened: as §1
# GalNAc(a1-3)Gal = target: GalNAc(a1-3)Gal
# Procedure, shortened: as §1
# GalNAc(a1-3)GalNAc = target: GalNAc(a1-3)GalNAc
# Procedure, shortened: as §1
# [3] = target: GalNAc(a1-3)GalNAc(b1-3)Gal(a1-4)Gal(b1-4)Glc
# Procedure, shortened: as §1
# [4] = target: GalNAc(a1-3)GalNAc(b1-3)Gal(a1-4)Gal(b1-4)GlcNAc
# Procedure, shortened: as §1
# GalNAc(b1-3)Gal = target: GalNAc(b1-3)Gal
# Procedure, shortened: as §1
# [5] = target: GalNAc(b1-3)Gal(a1-4)Gal(b1-4)GlcNAc
# Procedure, shortened: as §1
# [6] = target: GalNAc(b1-3)Gal(a1-4)Gal(b1-4)GlcNAc(b1-3)Gal(b1-4)Glc
# Procedure, shortened: as §1
# [7] = target: GalNAc(b1-3)Gal(a1-6)Gal(b1-4)Glc
# Procedure, shortened: as §1
# GalNAc(b1-3)GalNAc = target: GalNAc(b1-3)GalNAc
# Procedure, shortened: as §1
# GalNAc(b1-4)Gal(b1-4)Glc = target: GalNAc(b1-4)Gal(b1-4)Glc
# Procedure, shortened: as §1
# GalNAc(b1-4)GlcNAc = target: GalNAc(b1-4)GlcNAc
# Procedure, shortened: as §1
# [8] = target: GalNAc(b1-4)GlcNAc(b1-2)Man(a1-3)[GalNAc(b1-4)GlcNAc(b1-2)Man(a1-6)]Man(b1-4)GlcNAc(b1-4)GlcNAc
# Procedure, shortened: as §1
# GalNAc(b1-6)GalNAc = target: GalNAc(b1-6)GalNAc
# Procedure, shortened: as §1
# Glc(a1-4)Glc = target: Glc(a1-4)Glc
# Procedure, shortened: as §1
# [9] = target: Glc(a1-4)Glc(a1-4)Glc(a1-4)Glc
# Procedure, shortened: as §1
# Glc(a1-6)Glc(a1-6)Glc = target: Glc(a1-6)Glc(a1-6)Glc
# Procedure, shortened: as §1
# [10] = target: Glc(a1-6)Glc(a1-6)Glc(a1-6)Glc
# Procedure, shortened: as §1
# Glc(b1-4)Glc = target: Glc(b1-4)Glc
# Procedure, shortened: as §1
# Glc(b1-6)Glc = target: Glc(b1-6)Glc
# Procedure, shortened: as §1
# GlcA(b1-3)Gal = target: GlcA(b1-3)Gal
# Procedure, shortened: as §1
# GlcA(b1-3)GlcNAc = target: GlcA(b1-3)GlcNAc
# Procedure, shortened: as §1
binder,measurement,setting,value
"BC2L-D C-terminal domain (Burkholderia cenocepacia), Q39MQ9_BURS3 (protein) LVIVDAVTLLSAYPEASRDPAAPTVIDGRHLYVVSPGDAAQLGHNDSRLFTGLSPGDQLHLRETALALRAEVSVLFIRFALKDAGIVAPIELEVRDAATAVPDADDLLHPSCRPLKDHYWRSDVLAAGATTCTADFAVCDRDGTVSGYFRWETSIEIAGSQPDTKQPGFKPSSDRNGNFSLPPNTAFKAIFYANAADRQDLKLFIDDAPEPAATFVGNSEDGVRLFTLNSKGGKIRIEASANGRQSATDARLAPLSAGDTVWLGWLGAEDGADADYNDGIVILQWPIT",glycan array binding signal (z-score),Gal3S(b1-4)Glc,-0.239
same,glycan array binding signal (z-score),Gal3S(b1-4)Glc6S,-0.241
same,glycan array binding signal (z-score),Gal3S(b1-4)GlcNAc,-0.239
same,glycan array binding signal (z-score),Gal3S(b1-4)GlcNAc6S,-0.235
same,glycan array binding signal (z-score),[1],-0.177
same,glycan array binding signal (z-score),[2],-0.146
same,glycan array binding signal (z-score),Gal3S4S(b1-4)GlcNAc,-0.246
same,glycan array binding signal (z-score),Gal3S6S(b1-4)GlcNAc,-0.243
same,glycan array binding signal (z-score),Gal3S6S(b1-4)GlcNAc6S,-0.238
same,glycan array binding signal (z-score),Gal4S(b1-4)GlcNAc,-0.247
same,glycan array binding signal (z-score),Gal4S6S(b1-4)GlcNAc,-0.243
same,glycan array binding signal (z-score),Gal6S(b1-3)GlcNAc,-0.16
same,glycan array binding signal (z-score),Gal6S(b1-3)GlcNAc6S,-0.16
same,glycan array binding signal (z-score),Gal6S(b1-4)Glc,-0.243
same,glycan array binding signal (z-score),Gal6S(b1-4)Glc6S,-0.241
same,glycan array binding signal (z-score),Gal6S(b1-4)GlcNAc,-0.244
same,glycan array binding signal (z-score),Gal6S(b1-4)GlcNAc6S,-0.249
same,glycan array binding signal (z-score),GalNAc(a1-3)Gal,-0.234
same,glycan array binding signal (z-score),GalNAc(a1-3)GalNAc,-0.239
same,glycan array binding signal (z-score),[3],-0.163
same,glycan array binding signal (z-score),[4],-0.165
same,glycan array binding signal (z-score),GalNAc(b1-3)Gal,-0.243
same,glycan array binding signal (z-score),[5],-0.237
same,glycan array binding signal (z-score),[6],-0.246
same,glycan array binding signal (z-score),[7],-0.169
same,glycan array binding signal (z-score),GalNAc(b1-3)GalNAc,-0.246
same,glycan array binding signal (z-score),GalNAc(b1-4)Gal(b1-4)Glc,-0.16
same,glycan array binding signal (z-score),GalNAc(b1-4)GlcNAc,-0.245
same,glycan array binding signal (z-score),[8],-0.228
same,glycan array binding signal (z-score),GalNAc(b1-6)GalNAc,-0.161
same,glycan array binding signal (z-score),Glc(a1-4)Glc,-0.242
same,glycan array binding signal (z-score),[9],-0.163
same,glycan array binding signal (z-score),Glc(a1-6)Glc(a1-6)Glc,-0.245
same,glycan array binding signal (z-score),[10],-0.167
same,glycan array binding signal (z-score),Glc(b1-4)Glc,-0.24
same,glycan array binding signal (z-score),Glc(b1-6)Glc,-0.237
same,glycan array binding signal (z-score),GlcA(b1-3)Gal,-0.244
same,glycan array binding signal (z-score),GlcA(b1-3)GlcNAc,-0.246
